From the supplement of paper PMC12217912
Some of the results follow. Sequences were assembled here from the parent chain. Inactive controls read about 0.05.

B1: TEV protease; numbered along this chain (parent)
chain: MGESLFKGPRDYNPISSSICHLTNESDGHTTSLYGIGFGPFIITNKHLFRRNNGTLVVQSLHGVFKVKDTTTLQQHLVDGRDMIIIRMPKDFPPFPQKLKFREPQREERICLVTTNFQTKSMSSMVSDTSCTFPSGDGIFWKHWIQTKDGQCGSPLVSTRDGFIVGIHSASNFTNTNNYFTSVPKNFMELLTNQEAQQWVSGWRLNADSVLWGGHKVFMVKPEEPFQPVKEATQL

Variants of: B1
Assay: raw area under fraction-flipped curve 0-4 h after induction (AUC4h, not background-subtracted), DNA-recorder readout of cleavage of the substrate (dimensionless); higher = more cleavage of the substrate by the protease variant
Details: temperature: 34 °C; time window: 0-4 h after rhamnose induction
Experimental: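 In vivo DNA recorder in E. coli TOP10(DE3) ΔrhaA at 34 °C. Each TEVp single-site mutant (parent TEVp 0) is paired with a single-site variant of the 7-mer TEVs (canonical ENLYFQ|S). The substrate sits between flexible linkers in a Bxb1-sfGFP-TEVs-SsrA fusion, so cleavage stabilises Bxb1 and speeds flipping of a recombination array, read by NGS. The value is the raw area under the fraction-flipped curve over 0-4 h after rhamnose induction (AUC4h), with ≥20 reads per time point. It is not background-subtracted; inactive controls average about 0.047.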
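Note: Bxb1 expression induced with 0.2% (w/v) L-rhamnose at OD600 near 0.5, cultures sampled hourly, flipped fraction per protease–substrate barcode pair counted by paired-end Illumina sequencing.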

Row | Variant | area with substrate ENLYFQA | area with substrate ENLYFQC | area with substrate ENLYFQG | area with substrate ENLYFQR | area with substrate ENLYFQS | area with substrate ENLYFQT | area with substrate ENLYFQD | area with substrate ENLYFQF | area with substrate ENLYFQH | area with substrate ENLYFQI | area with substrate ENLYFQK | area with substrate ENLYFQL | area with substrate ENLYFQM | area with substrate ENLYFQN | area with substrate ENLYFQP | area with substrate ENLYFQQ | area with substrate ENLYFQV | area with substrate ENLYFQW | area with substrate ENLYFQY | area with substrate ENLYFQE
1 | MMESLFKGPRDYNPISSSICHLTNESDGHTTSLYGIGFGPFIITNKHLFRRNNGTLVVQSLHGVFKVKDTTTLQQHLVDGRDMIIIRMPKDFPPFPQKLKFREPQREERICLVTTNFQTKSMSSMVSDTSCTFPSGDGIFWKHWIQTKDGQCGSPLVSTRDGFIVGIHSASNFTNTNNYFTSVPKNFMELLTNQEAQQWVSGWRLNADSVLWGGHKVFMVKPEEPFQPVKEATQL [G2M] | 0.122 | 0.159 | 0.136 | 0.0856 | 0.128 | 0.0847 |  |  |  |  |  |  |  |  |  |  |  |  |  | 
2 | MGEGLFKGPRDYNPISSSICHLTNESDGHTTSLYGIGFGPFIITNKHLFRRNNGTLVVQSLHGVFKVKDTTTLQQHLVDGRDMIIIRMPKDFPPFPQKLKFREPQREERICLVTTNFQTKSMSSMVSDTSCTFPSGDGIFWKHWIQTKDGQCGSPLVSTRDGFIVGIHSASNFTNTNNYFTSVPKNFMELLTNQEAQQWVSGWRLNADSVLWGGHKVFMVKPEEPFQPVKEATQL [S4G] | 0.113 | 0.148 | 0.133 | 0.0553 | 0.118 | 0.0701 | 0.079 | 0.0948 | 0.0823 | 0.0515 | 0.0706 | 0.0585 | 0.109 | 0.0849 | 0.0586 | 0.0699 | 0.074 | 0.0669 | 0.0858 | 
3 | MGENLFKGPRDYNPISSSICHLTNESDGHTTSLYGIGFGPFIITNKHLFRRNNGTLVVQSLHGVFKVKDTTTLQQHLVDGRDMIIIRMPKDFPPFPQKLKFREPQREERICLVTTNFQTKSMSSMVSDTSCTFPSGDGIFWKHWIQTKDGQCGSPLVSTRDGFIVGIHSASNFTNTNNYFTSVPKNFMELLTNQEAQQWVSGWRLNADSVLWGGHKVFMVKPEEPFQPVKEATQL [S4N] | 0.0652 | 0.158 | 0.0924 | 0.0471 | 0.116 | 0.0627 | 0.0831 |  | 0.0956 | 0.059 | 0.0362 | 0.0573 | 0.113 | 0.0903 | 0.035 | 0.0528 | 0.0558 |  | 0.0824 | 0.112
4 | MGERLFKGPRDYNPISSSICHLTNESDGHTTSLYGIGFGPFIITNKHLFRRNNGTLVVQSLHGVFKVKDTTTLQQHLVDGRDMIIIRMPKDFPPFPQKLKFREPQREERICLVTTNFQTKSMSSMVSDTSCTFPSGDGIFWKHWIQTKDGQCGSPLVSTRDGFIVGIHSASNFTNTNNYFTSVPKNFMELLTNQEAQQWVSGWRLNADSVLWGGHKVFMVKPEEPFQPVKEATQL [S4R] | 0.112 | 0.152 |  |  | 0.135 | 0.0688 | 0.0641 | 0.0771 | 0.0723 |  | 0.0699 | 0.066 | 0.109 |  | 0.0213 | 0.082 | 0.0705 | 0.0497 | 0.0919 | 0.0817
5 | MGESLFKGPCDYNPISSSICHLTNESDGHTTSLYGIGFGPFIITNKHLFRRNNGTLVVQSLHGVFKVKDTTTLQQHLVDGRDMIIIRMPKDFPPFPQKLKFREPQREERICLVTTNFQTKSMSSMVSDTSCTFPSGDGIFWKHWIQTKDGQCGSPLVSTRDGFIVGIHSASNFTNTNNYFTSVPKNFMELLTNQEAQQWVSGWRLNADSVLWGGHKVFMVKPEEPFQPVKEATQL [R10C] | 0.1 | 0.104 | 0.0913 | 0.0714 | 0.0946 | 0.0604 |  | 0.0611 |  | 0.0527 | 0.066 | 0.0622 | 0.0957 | 0.0735 |  |  | 0.066 | 0.0594 |  | 
6 | MGESLFKGPGDYNPISSSICHLTNESDGHTTSLYGIGFGPFIITNKHLFRRNNGTLVVQSLHGVFKVKDTTTLQQHLVDGRDMIIIRMPKDFPPFPQKLKFREPQREERICLVTTNFQTKSMSSMVSDTSCTFPSGDGIFWKHWIQTKDGQCGSPLVSTRDGFIVGIHSASNFTNTNNYFTSVPKNFMELLTNQEAQQWVSGWRLNADSVLWGGHKVFMVKPEEPFQPVKEATQL [R10G] | 0.101 | 0.125 | 0.109 | 0.062 | 0.0951 |  | 0.0647 | 0.0898 | 0.128 | 0.0571 |  | 0.0933 | 0.0645 | 0.0732 | 0.0589 | 0.0676 | 0.0664 | 0.0698 | 0.114 | 
7 | MGESLFKGPPDYNPISSSICHLTNESDGHTTSLYGIGFGPFIITNKHLFRRNNGTLVVQSLHGVFKVKDTTTLQQHLVDGRDMIIIRMPKDFPPFPQKLKFREPQREERICLVTTNFQTKSMSSMVSDTSCTFPSGDGIFWKHWIQTKDGQCGSPLVSTRDGFIVGIHSASNFTNTNNYFTSVPKNFMELLTNQEAQQWVSGWRLNADSVLWGGHKVFMVKPEEPFQPVKEATQL [R10P] | 0.0914 | 0.096 | 0.0915 | 0.0486 | 0.0962 | 0.063 | 0.0737 |  |  | 0.0517 | 0.0673 |  | 0.094 | 0.0674 |  |  |  |  |  | 
8 | MGESLFKGPVDYNPISSSICHLTNESDGHTTSLYGIGFGPFIITNKHLFRRNNGTLVVQSLHGVFKVKDTTTLQQHLVDGRDMIIIRMPKDFPPFPQKLKFREPQREERICLVTTNFQTKSMSSMVSDTSCTFPSGDGIFWKHWIQTKDGQCGSPLVSTRDGFIVGIHSASNFTNTNNYFTSVPKNFMELLTNQEAQQWVSGWRLNADSVLWGGHKVFMVKPEEPFQPVKEATQL [R10V] | 0.0633 | 0.0868 | 0.088 | 0.0753 | 0.0778 | 0.0825 |  | 0.0589 | 0.0687 | 0.0614 | 0.0602 | 0.0628 | 0.085 | 0.0516 |  | 0.0712 | 0.0776 | 0.0691 | 0.0469 | 
9 | MGESLFKGPRAYNPISSSICHLTNESDGHTTSLYGIGFGPFIITNKHLFRRNNGTLVVQSLHGVFKVKDTTTLQQHLVDGRDMIIIRMPKDFPPFPQKLKFREPQREERICLVTTNFQTKSMSSMVSDTSCTFPSGDGIFWKHWIQTKDGQCGSPLVSTRDGFIVGIHSASNFTNTNNYFTSVPKNFMELLTNQEAQQWVSGWRLNADSVLWGGHKVFMVKPEEPFQPVKEATQL [D11A] | 0.0899 | 0.0998 |  | 0.0594 | 0.0971 | 0.0663 | 0.0551 |  |  | 0.085 | 0.0608 | 0.0599 | 0.0973 | 0.0791 | 0.06 | 0.058 | 0.0619 | 0.0828 | 0.0653 | 
